Potency data for 18 molecules are collected here from PubChem BioAssay (NCATS).

The structures appear in SMILES notation. Results filed as inconclusive are left out. Calls come from the whole dose curve; as a rule, active = well fitted cell-killing curve with a large enough effect; inconclusive = small, poorly fitted or top-dose-only effect; inactive = no such curve, though single readings can be large or run the other way. Where a structure was tested more than once in an assay, its records may differ in their call. Certain results were filed several times, with different values. They are shown here; other results are not. The source may hold further records. The records of an entry are repeated measurements (runs, samples, wells, individuals or studies). Brackets tell where a record comes from. Letters count within one entry.
Potency is the fitted concentration of half-maximal effect.

The nature of one test: qHTS of pediatric cancer cell lines to identify multiple opportunities for drug repurposing: Primary screen for A673 cells (AID 1347092). Note: nearly all actives have a fitted effect of over 45% in size. To be noted: A673 Ewing sarcoma viability, CellTiter-Glo ATP luminescence, 48 h; series mostly up to 46 µM. The essentials: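 A673 cells (500-1,000 cells/well in growth media) were pre-incubated 5 h at 37 degrees C, then exposed to compounds for 48 h. Viability was read as CellTiter-Glo luminescence; concentration-response curves came directly from the primary screen.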
A general note: qHTS replaces the single test concentration by a dilution series.
As for `O=C(NCC1CCCCN1)c1cc(OCC(F)(F)F)ccc1OCC(F)(F)F` (configuration not stated), the Potency entry was “active: 46.9 nM [sample A] and inactive [sample B]”.
Turning to `COC(=O)C1=C(C)NC(C)=C(C(=O)OC(C)C)C1c1cccc2nonc12` (configuration not stated), the Potency result was “active: 14.8 µM [sample A] and inactive [sample B]”.
Still for that read-out and setting: under `CCCc1cc(=O)[nH]c(=S)[nH]1` stands “inactive [sample A] and active: 2.96 µM [sample B]”; under `Cc1ccc(S(=O)(=O)NC(=O)NN2CC3CCCC3C2)cc1` (configuration not stated), “inactive [sample A] and active: 23.5 µM [sample B]”; under `CC1(C)CCC(C)(C)c2cc(NC(=O)c3ccc(C(=O)O)cc3)ccc21`, “active: 2.96 µM [sample A] and inactive [sample B]”.
The same measure, in the same setting: under `Clc1ccc(C(Cn2ccnc2)OCc2ccc(Sc3ccccc3)cc2)c(Cl)c1` (configuration not stated) stands “inactive [sample A] and active: 18.7 µM [sample B]”.
In the case of `Cc1cc2cc3c(C)cc(=O)oc3c(C)c2o1`, the Potency result is “inactive [sample A] and active: 7.43 µM [sample B]”.
For `Cc1ccc(C)c(OCCCC(C)(C)C(=O)O)c1`, the Potency entry was “inactive [sample A] and active: 14.8 µM [sample B]”.
For `CC(S)C(=O)NCC(=O)O` (configuration not stated), the Potency result was “active: 14.8 µM [sample A] and inactive [sample B]”.

The next test is described as follows: qHTS of pediatric cancer cell lines to identify multiple opportunities for drug repurposing: Primary screen for SK-N-MC cells (AID 1347093). Conditions: SK-N-MC viability, CellTiter-Glo luminescence, 48 h; series mostly up to 46 µM.
As for `O=C(NCC1CCCCN1)c1cc(OCC(F)(F)F)ccc1OCC(F)(F)F` (configuration not stated), the Potency result was “active: 3.32 µM [sample A] and inactive [sample B]”.
Still for that read-out and setting: under `CCCc1cc(=O)[nH]c(=S)[nH]1` stands “inactive [sample A] and active: 14.8 µM [sample B]”.
On the same count and under the same terms, under `Cc1c(OCC(F)(F)F)ccnc1CS(=O)c1nc2ccccc2[nH]1` (configuration not stated) stands “inactive [sample A] and active: 18.7 µM [sample B]”; under `O=C(NCCO[N+](=O)[O-])c1cccnc1`, “active: 18.7 µM [sample A] and inactive [sample B]”; under `Clc1ccc(C(Cn2ccnc2)OCc2ccc(Sc3ccccc3)cc2)c(Cl)c1` (configuration not stated), “inactive [sample A] and active: 29.6 µM [sample B]”.
The same measure, in the same setting: under `Cc1cc2cc3c(C)cc(=O)oc3c(C)c2o1` stands “inactive [sample A] and active: 10.5 µM [sample B]”.
In the case of `Cc1ccc(C)c(OCCCC(C)(C)C(=O)O)c1`, the Potency result is “inactive [sample A] and active: 5.9 µM [sample B]”.
On the same count and under the same terms, under `O=C(NC(Cc1cc(=O)[nH]c2ccccc12)C(=O)O)c1ccc(Cl)cc1` (configuration not stated) stands “inactive [sample A] and active: 23.5 µM [sample B]”.
For the molecule `CS(=O)(=O)OCCCCOS(C)(=O)=O`, the Potency entry is “inactive [sample A] and active: 20.9 µM [sample B]”.
On the same count and under the same terms, under `c1ccc2[nH]c(-c3cscn3)nc2c1` stands “inactive [sample A] and active: 8.33 µM [sample B]”.

The next test can be described thus: qHTS of pediatric cancer cell lines to identify multiple opportunities for drug repurposing: Primary screen for NB-EBc1 cells (AID 1347095). Conditions: NB-EBc1 neuroblastoma viability, CellTiter-Glo luminescence, 48 h; series mostly up to 46 µM.
Take `O=C(NCC1CCCCN1)c1cc(OCC(F)(F)F)ccc1OCC(F)(F)F` (configuration not stated): the Potency entry is “active: 2.64 µM [sample A] and inactive [sample B]”.
On to `CCCc1cc(=O)[nH]c(=S)[nH]1`, for which the Potency result was “inactive [sample A] and active: 2.64 µM [sample B]”.
Still for that read-out and setting: under `CNC[C@H](O)c1ccc(O)c(O)c1` stands “active: 42.9 µM [sample A] and inactive [sample B]”.
Same read-out and setting: under `Cc1ccc(Nc2nccc(N(C)c3ccc4c(C)n(C)nc4c3)n2)cc1S(N)(=O)=O` stands “inactive [sample A] and active: 23.5 µM [sample B]”; under `CS(=O)(=O)OCCCCOS(C)(=O)=O`, “inactive [sample A] and active: 16.6 µM [sample B]”.

The nature of another test: qHTS of pediatric cancer cell lines to identify multiple opportunities for drug repurposing: Primary screen for Saos-2 cells (AID 1347097). Note: nearly all actives have a fitted effect of over 40% in size. To be noted: Saos-2 viability, CellTiter-Glo ATP luminescence, 48 h; series mostly up to 46 µM. An excerpt: Drug repurposing or repositioning has been offered as a strategy for drug development in oncology programs. This approach has special potential for childhood cancers and other rare or orphan diseases, where the expected return on new drug development has been a disincentive to pharmaceuticals. […] In this project we exploit the poly-pharmacology of drugs to discover new indications via phenotypic screening of a panel of 19 well-characterized cell lines derived from solid tumors seen in children and adolescents. The goal is to identify approved drugs with previously unrecognized anticancer properties that has the potential to reveal new mechanisms and biological processes involved in carcinogenesis or drug resistance. We employed a titration-based paradigm (quantitative high-throughput screening or qHTS), where all compounds were tested at multiple concentrations for their effect on cell viability. […] We screened the NIH Chemical Genomics Center (NCGC) Pharmaceutical Collection (NPC) and Mechanism Interrogation Plate (MIPE) small molecule collections of approved and investigational compounds against these cell lines; and measured metabolically active cells after 48 hours of compound treatment as a proxy for cell viability. […] Assay Submitter: Nathalia J. Martinez, National Center for Advancing Translational Sciences, National Institutes of Health, Rockville, MD, USA; email: natalia.martinez@nih.gov Shen, M et al. Quantitative high-throughput phenotypic screening of pediatric cancer cell lines identifies multiple opportunities for drug repurposing. […]
The cells were obtained from University of North Carolina (UNC), Pediatric Preclinical Testing Program (PPT), and Coriell Institute (CI). qHTS cell viability assay: Cells were assayed in growth media at a density of 500-1,000 cells/well. […] After a 15 min incubation at room temperature, samples were analyzed for luminescence intensity using a ViewLux High-throughput CCD imager equipped with clear filters.
Consider `O=C(NCC1CCCCN1)c1cc(OCC(F)(F)F)ccc1OCC(F)(F)F` (configuration not stated), for which the Potency entry is “active: 935 nM [sample A] and inactive [sample B]”.
On to `Clc1ccc(C(Cn2ccnc2)OCc2ccc(Sc3ccccc3)cc2)c(Cl)c1` (configuration not stated), for which the Potency result is “inactive [sample A] and active: 29.6 µM [sample B]”.
On the same count and under the same terms, under `Cc1ccc(Nc2nccc(N(C)c3ccc4c(C)n(C)nc4c3)n2)cc1S(N)(=O)=O` stands “inactive [sample A] and active: 16.6 µM [sample B]”.

Another test is described as follows: qHTS of pediatric cancer cell lines to identify multiple opportunities for drug repurposing: Primary screen for SK-N-SH cells (AID 1347098). Note: nearly all actives have a fitted effect of over 65% in size. To be noted: SK-N-SH viability, CellTiter-Glo luminescence, 48 h; series mostly up to 57 µM. The essentials: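 Cells (500-1,000/well) rested 5 h, then received compounds for 48 h; metabolically active cells were measured by CellTiter-Glo luminescence. Final concentrations spanned up to 46 µM (MIPE, 11-point) or 0.59 nM-46 µM (NPC, 8-point) in primary screens, 11-point in follow-ups.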
Consider `O=C(NCC1CCCCN1)c1cc(OCC(F)(F)F)ccc1OCC(F)(F)F` (configuration not stated), for which the Potency entry was “active: 10.8 µM [sample A] and inactive [sample B]”.
Regarding `COC(=O)C1=C(C)NC(C)=C(C(=O)OC(C)C)C1c1cccc2nonc12` (configuration not stated), the Potency entry is “active: 15.2 µM [sample A] and inactive [sample B]”.
As to `Cc1cc2cc3c(C)cc(=O)oc3c(C)c2o1`, the Potency result was “inactive [sample A] and active: 21.5 µM [sample B]”.
The same measure, in the same setting: under `CCCCC(CC)COC(=O)C(C#N)=C(c1ccccc1)c1ccccc1` (configuration not stated) stands “active: 5.41 µM [sample A] and inactive [sample B]”.
The same measure, in the same setting: under `Cc1cccc(C)c1OCC(=O)N[C@@H](Cc1ccccc1)[C@@H](O)C[C@H](Cc1ccccc1)NC(=O)[C@H](C(C)C)N1CCCNC1=O` stands “inactive [sample A] and active: 17.2 µM [sample B]”.
